± gives the standard deviation of the averaged measurements. Some of the results follow.

In the test the test system is PfAP2-G AP2 domain (GST-tagged). As to the kind of experiment: gcPBM binding intensity (ln(normalized median fluorescence intensity)); higher = stronger DNA binding. The procedure, abridged:
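The binding buffer was 1× PBS containing 1% milk, 0.2 mg/ml BSA, 0.5% salmon testes DNA and 0.03% Triton X-100. In it, GST-tagged P. falciparum DNA-binding domains expressed in E. coli were applied for 1 h to an Agilent 4 × 180k array of primer-extended double-stranded 36-bp intergenic genomic probes plus negative controls. Binding intensity, read with Alexa488 anti-GST antibody and a 488 nm scan, is the highest Masliner-normalised natural-log median intensity across replicate spots of either probe orientation.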
With “TTATAATAATATAATACATGCATATATATTTAAATA [TGCATGCA_site903]”, the “gcPBM binding intensity (ln)” value was found to be 9.62 ± 0.12.
Under “AAATATATTTTATGTACACACAAAATTAAGGGATAT [CACACA_site4881]” stands 11.5 ± 0.81; under “TGTTAATTATAAATTTGTACTTATTTTTACAAAATA [XGTACX_site6598]”, 11.2 ± 0.87.
As for ATAAACATATAAAAAGTGCATATTCATATATCTACT, the “gcPBM binding intensity (ln)” value worked out at 9.94 ± 0.12.
On to “AATACACTAAACAAAAGTACAAAAATATTCTACAAA [XGTACX_site5162]”, for which the “gcPBM binding intensity (ln)” value stood at 11.1 ± 0.84.
Consider “ATGGCCTCATTTGGGACACACAACATAAAATATATA [CACACA_site753]”, for which the “gcPBM binding intensity (ln)” value is 10.8 ± 0.64.
Under “AAAAAAAAAAAAATCACACATAATATAGAATATGTA [CACACA_site4993]” stands 9.59 ± 0.11; under “ATATATATATATATAACACACGCAAAAAAATTAAAT [CACACA_site8395]”, 10.3 ± 0.34.
In the case of “AACTTAAAAAATAAATGTACATAAATATAAACATAT [XGTACX_site2987]”, the “gcPBM binding intensity (ln)” value turned out to be 11.1 ± 0.59.
For “TATTTAAATTTTAAGTGTACATATTTATTTATATCT [XGTACX_site6545]” the value was 11.4 ± 0.8.
For “TATAAAAATGGGCACACACACACATATATATATTTA [CACACA_site1527]” the value was 10.7 ± 0.42.
Consider “TCACTATAATAATTTACACACATTTTAAGAAAATGT [CACACA_site3530]”, for which the “gcPBM binding intensity (ln)” value turned out to be 9.97 ± 0.085.
For “AAAATGAATAAAAATACACACATATCTGTTATTCTC [CACACA_site5474]” the value was 9.74 ± 0.2; for “GAATATTAATTCATACGTACTTATATATAAGTATAT [XGTACX_site3707]”, 11.1 ± 0.59; for “ATTTTTTTTTTTTTTTTTTTTTTATTCTTGTAATCT [CACACA_negctrl_site1039]”, 9.575 ± 0.078.
For “ATATAATAATAAAGACGTACAAATGTATATATATAC [XGTACX_site3123]” the value was 11.4 ± 0.87.
For CCTTTTTATCTTTTTGTGCACAGACCTTTTTTAAAT, the “gcPBM binding intensity (ln)” value was determined as 10.8 ± 0.45.
On to “ATGTAAGTTGTGCATTCACACACATATATATATATA [CACACA_site9086]”, for which the “gcPBM binding intensity (ln)” value worked out at 10.3 ± 0.42.
As for “AAAAAAAAAAAAAACATACACACAATAAAATAGGGG [CACACA_site2398]”, the “gcPBM binding intensity (ln)” value stood at 10.6 ± 0.26.
For “ACATAAATATAAACGTGTACATATATAAATATATAT [XGTACX_site7293]” the value was 11.6 ± 0.95; for “CATATATAAAAAAACACACACATATATATATATATA [CACACA_site1195]”, 10.1 ± 0.37.
For TATATTTTATATATGGTGCAACTTTTATTTAAATAA the value was 10.2 ± 0.4; for “ATTTTTTTTTTTTATAGTGGATCCACATTTGCCATT [CACACA_negctrl_site1284]”, 10.3 ± 0.36; for “ATATATTTTAATTGTTGTACATATTAAATAAATAGG [XGTACX_site2311]”, 11.4 ± 0.72.
Under “TTACAAGTAAAAGGTACACACATTATAAATACAAAT [CACACA_site4752]” stands 11.4 ± 0.93; under “ATGTATATGTCTATATGTACTTATATTTTATTTTTT [XGTACX_site5902]”, 11.2 ± 0.95.
For “TGTTTTATCTTATATGCACACGATAAAAAAAAAAAA [CACACA_site2674]”, the “gcPBM binding intensity (ln)” value was 10.2 ± 0.41.
Under “AAGAAAGACATTACGTGTACCAAACAACCTACCAAC [XGTACX_site4219]” stands 11.1 ± 0.58.
Turning to “AAAATTAAACTCACACCACACACAAAAAAAAAAAAA [CACACA_site8131]”, the “gcPBM binding intensity (ln)” value amounted to 10.1 ± 0.49.
For “ATTTACATAATAAAATGTACATTTATAAATATTATA [XGTACX_site1901]”, the “gcPBM binding intensity (ln)” value came out at 10.9 ± 0.51.
With “TACACTTTTTATGAAGTGCATGTATAGCTCTTAAAA [GTGCAC_site9595]”, the “gcPBM binding intensity (ln)” value was 9.915 ± 0.049.
Under “TGAGTACACAATAATACATGCAATTCCTATGAATAT [TGCATGCA_site851]” stands 11.3 ± 1.
For “ATAAATATTAAAAGTACACACAGATACACTAATTAT [CACACA_site1808]” the value was 11.6 ± 0.96; for “ATATGACATAAAACATGTACATGTTCATAAATATAT [XGTACX_site1923]”, 11.1 ± 0.5.
For the sequence “ATGCTCAGGAAAACATGTACAAAATTATTTGTTATA [XGTACX_site4306]”, the “gcPBM binding intensity (ln)” value turned out to be 10.8 ± 0.58.
For CATTATTCATTTTGGATGCACTGACAGAAAAATGGT the value was 10.4 ± 0.18.
For “AGTTTTTATAAAAATAGTACATATTTATTAATCTGT [XGTACX_site5881]” the value was 11.2 ± 0.64; for “AAAATTGAACCTGACAAGGTATTTTATTATTTATTA [TGCATGCA_negctrl_site181]”, 9.69; for “TTCTATTTTAATATCTGTACATAATAAAGATCCATT [XGTACX_site1142]”, 11.2 ± 0.74.
Under “TTTTGTGCTTAAAAAAGTACAAAATATAAAAAAAAT [XGTACX_site7876]” stands 11.3 ± 0.88; under “TGCAGTCTGGAGAAACGTACACAGTATCTGGTAACC [XGTACX_site2543]”, 11.4 ± 0.99; under “CCCACAGACGGACACACACACACACCGACACATATA [CACACA_site4356]”, 11.5 ± 0.88.
Turning to “TTATTTATTTATAATTGTACATTGCAAATGAATTTA [XGTACX_site4083]”, the “gcPBM binding intensity (ln)” value amounted to 10.4 ± 0.3.
Regarding “ATATATATATATATATGTACATAGAGAAGTATCTTT [XGTACX_site4737]”, the “gcPBM binding intensity (ln)” value came out at 11.2 ± 0.8.
For “TAATGTTACACAAACTTTTCATTCTTTTTAATAAAT [TGCATGCA_negctrl_site331]”, the “gcPBM binding intensity (ln)” value stood at 10.1 ± 0.16.
For the sequence “ATATAATTATAAAATAAACACACATATATATTTATA [CACACA_site8039]”, the “gcPBM binding intensity (ln)” value stood at 9.725 ± 0.078.
Consider “TATACACCCAGACACACACACACACCCAAAAAAAAA [CACACA_site497]”, for which the “gcPBM binding intensity (ln)” value amounted to 10.4 ± 0.51.
For “TGTTGTTGTAATTATTGTACGTTATGCGATTATTAT [XGTACX_site7005]”, the “gcPBM binding intensity (ln)” value stood at 11.2 ± 0.83.
For “AACATTTTAAATTATACACACATTTTGAATATATAT [CACACA_site3470]” the value was 9.93 ± 0.11; for “AAAATATGTAGCTACACACACATAAACAAAATAACA [CACACA_site1007]”, 10.2 ± 0.21.
For “GATATATTTTATATATGTACATACAAGGGTAAATAT [XGTACX_site1202]” the value was 11.2 ± 0.66; for “AAAATAAACTATAGTACACACTTATTATTATGAAAT [CACACA_site5488]”, 11.2 ± 0.82; for “TCAATTAGACGAAAATGTACATATGTATATATTTTT [XGTACX_site5027]”, 10.8 ± 0.54.
Consider “AAGAAAAAATATACTTCACACATTTAATATATAATT [CACACA_site4919]”, for which the “gcPBM binding intensity (ln)” value was 9.92 ± 0.11.
For “AAAAAAAAAAAAAAATGTACAAATATATACATATAT [XGTACX_site935]” the value was 10.9 ± 0.68; for “AAAAAAGAATTGTGCACACACAAAAAATGTTCATAA [CACACA_site1103]”, 10.5 ± 0.45.
Turning to “TCGATGTTGGTAGGATGTACGGTACCGGTAGTATTT [XGTACX_site4214]”, the “gcPBM binding intensity (ln)” value was 11.1 ± 0.71.
For “ATTTTATAAAGGAAGTGTACTAATAAATTCAAATTA [XGTACX_site3922]” the value was 11.2 ± 0.72.

The values above are taken from the supplement of paper PMC11417369.
